# Assay results taken from PubChem BioAssay AID504332 (National Center for Advancing Translational Sciences (NCATS), 2011).
# The whole screen tested about 350,000 compounds, of which about 31,000 (8.9%) were called active. Inconclusive results, whose numbers are uncertain, are shown with a selection of clear calls. The call rests on the fitted dose curve; in most records, active means well fitted inhibition curve with a large enough effect; inconclusive means small, poorly fitted or top-dose-only effect; inactive means no such curve, though single readings can be large or run the other way. Where the call is inconclusive, the potency comes from a doubtful curve fit.
# Target: Histone-lysine N-methyltransferase EHMT2 (Homo sapiens) (UniProt Q96KQ7)
# Sequence of UniProt Q96KQ7 (Q96KQ7 whole entry, looked up): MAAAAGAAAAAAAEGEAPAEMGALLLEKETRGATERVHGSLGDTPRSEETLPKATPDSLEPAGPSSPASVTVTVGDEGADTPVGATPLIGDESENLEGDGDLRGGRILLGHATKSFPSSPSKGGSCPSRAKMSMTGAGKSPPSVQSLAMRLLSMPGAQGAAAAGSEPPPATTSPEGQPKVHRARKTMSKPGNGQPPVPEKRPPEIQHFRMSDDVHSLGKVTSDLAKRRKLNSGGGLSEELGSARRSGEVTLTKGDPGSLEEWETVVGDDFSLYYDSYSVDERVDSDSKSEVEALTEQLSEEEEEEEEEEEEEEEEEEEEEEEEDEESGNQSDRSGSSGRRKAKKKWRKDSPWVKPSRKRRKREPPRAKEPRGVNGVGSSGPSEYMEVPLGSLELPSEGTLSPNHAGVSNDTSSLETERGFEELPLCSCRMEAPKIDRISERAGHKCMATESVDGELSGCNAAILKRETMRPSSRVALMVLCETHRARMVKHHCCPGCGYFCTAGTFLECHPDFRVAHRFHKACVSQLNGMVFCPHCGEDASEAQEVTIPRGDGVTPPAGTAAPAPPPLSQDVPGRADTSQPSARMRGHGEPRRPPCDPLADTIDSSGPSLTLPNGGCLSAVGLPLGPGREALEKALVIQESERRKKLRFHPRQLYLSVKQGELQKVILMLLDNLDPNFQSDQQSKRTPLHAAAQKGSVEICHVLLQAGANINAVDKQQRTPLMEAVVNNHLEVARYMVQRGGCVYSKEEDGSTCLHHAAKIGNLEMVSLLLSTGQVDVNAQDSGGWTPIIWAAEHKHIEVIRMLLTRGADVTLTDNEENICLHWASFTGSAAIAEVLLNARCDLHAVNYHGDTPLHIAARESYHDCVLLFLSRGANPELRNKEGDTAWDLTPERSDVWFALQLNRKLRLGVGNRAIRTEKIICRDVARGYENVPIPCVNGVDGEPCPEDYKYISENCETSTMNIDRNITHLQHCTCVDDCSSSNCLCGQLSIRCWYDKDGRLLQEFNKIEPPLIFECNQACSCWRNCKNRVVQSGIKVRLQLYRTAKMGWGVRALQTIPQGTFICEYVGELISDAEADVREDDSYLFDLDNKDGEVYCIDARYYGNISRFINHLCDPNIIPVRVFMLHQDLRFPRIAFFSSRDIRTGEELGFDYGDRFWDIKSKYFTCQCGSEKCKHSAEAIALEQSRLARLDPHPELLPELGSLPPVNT
# Experiment: qHTS Assay for Inhibitors of Histone Lysine Methyltransferase G9a; further: nearly all actives have a fitted effect of over 75% in size
# Details: G9a H3K9 monomethylation, AlphaScreen, 2 h; activity, negative = inhibition: at 59 µM (top of the series) unless noted
# In short: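 Using a bead-based AlphaScreen, monomethylated H3K9 product from 2 h room-temperature reactions (G9a 20 nM, peptide 500 nM, SAM 20 uM) was detected with 0.5 ug/mL rabbit anti-H3K9me1 antibody.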
# On the % scale 0 is the no-effect control and ±100 the full control effect; potency means the concentration at half of the fitted maximal effect; tags describe the fitted curve by direction and shape.
Structure (SMILES),Potency,"activity, negative = inhibition"
CCCOc1ccc(C(=O)NCCC(=O)NCCCC(=O)O)cc1,"inconclusive: 5.62 µM [inhibitor, single point]",–
COc1ccc(S(=O)(=O)NCC(=O)Nc2ccc3c(c2)OCCO3)cc1OC,active: 50.1 µM,–
Cn1c(-c2cccc(Br)c2)cnc1NCc1cccc(F)c1,active: 3.98 µM,–
COc1ccc(Nc2nnc(SCC3CCCCO3)s2)cc1 (centres undefined),"inconclusive: 28.2 µM [inhibitor, partial curve, poor fit]",–
Cc1cc(C(N)=O)c2ccccc2n1,inactive,–
CCCc1nc2ccccc2c(=O)n1/N=C/c1ccccc1O,inactive,–
Cc1ccc(CNC(=O)CN2N=C(c3ccc(C)cc3)CCC2=O)cc1,inactive,–
CCCN(CCC)CCCNC(=O)Cn1ncn2c(cc3sc(CC)cc32)c1=O,inactive,–
CCN(CC)S(=O)(=O)c1ccc2c(c1)c(=O)c(C(=O)N1CCN(c3ccc(OC)cc3)CC1)cn2C,"inconclusive: 20 µM [inhibitor, partial curve]",–
Cc1ccccc1OCC(=O)N/N=C/c1ccc([N+](=O)[O-])o1,"inconclusive: 50.1 µM [inhibitor, partial curve]",–
CN=c1scc(-c2cc(OC)ccc2OC)n1/N=C/c1c(C)[nH]c2ccccc12,active: 12.6 µM,–
Cc1ccc(C(=O)N2CCCC(Nc3ccc(C(C)C)cc3)C2)cn1 (centres undefined),active: 39.8 µM,–
CC(C)N1CCC(N2CCN(C/C=C/c3ccc(F)cc3)CC2CCO)CC1 (centres undefined),inactive,–
O=C(NCc1ccco1)C1CCCN(c2nnc(-n3cccc3)s2)C1 (centres undefined),inactive,–
COc1cccc(-c2nn(-c3ccccc3)cc2C(=O)OCC(=O)Nc2ncc(Cl)cc2Cl)c1,"inconclusive: 79.4 µM [inhibitor, partial curve, poor fit]",–
Cc1ccc(NCc2nnc(SCC(=O)NCc3ccco3)n2CC2CCCO2)cc1Cl (centres undefined),–,inconclusive: -109% [inhibitor]
CCCS(=O)(=O)c1c(S(=O)(=O)CCC)c2cc(C(C)(C)C)ccn2c1C(=O)c1ccc(C)cc1,"inconclusive: 2.51 µM [inhibitor, partial curve, poor fit]",–
CC(=O)CCc1ccc(OCC(O)CNCCOc2ccc(C)cc2)cc1 (centres undefined),inactive,–
CCN(CC(=O)NCc1ccc(Cl)cc1)C(=O)COc1ccc(Cl)cc1Br,inactive,–
CSc1ccc(CN2CCN(CCC(C)C)C(CCO)C2)cc1 (centres undefined),"inconclusive: 25.1 µM [inhibitor, single point]",–
CC(=O)c1ccc(NC(=S)N2c3ccccc3CC2C)cc1 (centres undefined),"inconclusive: 50.1 µM [inhibitor, partial curve]",–
CCCC[n+]1ccn(C2=C([O-])c3ccccc3C(=O)/C2=N\S(=O)(=O)c2ccccc2)c1,–,inactive: 6.06% [at 0.501 µM]
CC1(C)CC(=O)C2=C(C1)N(CCN1CCOCC1)C1=C(C(=O)CC(C)(C)C1)C2c1ccc(Cl)c([N+](=O)[O-])c1,"inconclusive: 79.4 µM [inhibitor, single point]",–
COc1cccc(N2C(=O)CC(N3CCN(C(=O)c4ccco4)CC3)C2=O)c1 (centres undefined),–,inconclusive: -60.9% [inhibitor]
O=C(NC(=S)Nc1ccccc1)c1ccc(Br)o1,"inconclusive: 79.4 µM [inhibitor, partial curve, poor fit]",–

Structure (SMILES),Potency,"activity, negative = inhibition"
Cc1cc(C(=O)CSc2nnc(Nc3ccccc3F)s2)c(C)n1CC1CCCO1 (centres undefined),"inconclusive: 39.8 µM [inhibitor, single point]",–
CCOC(=O)c1c(C=O)c(C)n(Cc2ccccc2Cl)c1C,inactive,–
Cc1cccc(C)c1NC(=O)c1sccc1SCC#N,active: 11.2 µM,–
O=c1c2c(nc3cc(-c4ccc(Cl)cc4)[nH]n13)CCS2,"inconclusive: 1 µM [inhibitor, full curve]",–
Cc1ccc(-c2c3c(=O)n(C)c(=O)n(C)c3cn2-n2cnnc2)cc1,"inconclusive: 89.1 µM [inhibitor, partial curve, poor fit]",–
COCCNC(=O)c1ccc(CS(=O)(=O)c2ccccc2OC)o1,"inconclusive: 50.1 µM [inhibitor, partial curve, poor fit]",–
Cc1ccc(NC2SC(=O)N(Cc3cccc(C(=O)O)c3)C2=O)cc1 (centres undefined),"inconclusive: 79.4 µM [inhibitor, single point]",–
CNC(=S)Nc1cccc(C(=O)O)c1,–,inactive: 17.8% [at 12.7 µM]
COc1ccc(NC(=O)c2cccc3cccnc23)cc1S(N)(=O)=O,"inconclusive: 1.58 µM [inhibitor, full curve]",–
COC(=O)c1cc2occc2n1Cc1c(F)cccc1Cl,"inconclusive: 79.4 µM [inhibitor, single point]",–
Cc1ccc(C(=O)Nc2c(C)nc3ccccn3c2=O)cc1,inactive,–
Cc1cc(=O)oc2cc(OCC(=O)Nc3ccccc3C(=O)O)ccc12,inactive,–
Cc1ccc(C)c(N2CCN(C(=O)CCc3c(C)nn(-c4ccc(N5CCCC5)nn4)c3C)CC2)c1,inactive,–
COc1ccc(N2CCN(CC(=O)Nc3ccc(C)c(C)c3)CC2)cc1,"inconclusive: 79.4 µM [inhibitor, single point]",–
CN(C)CCNc1nc2sc3c(c2c(=O)n1-c1ccccc1)CCCCC3,inactive,–
COc1ccc(N2CCN(CC(O)COc3ccc4c(c3)CCC4)CC2)cc1 (centres undefined),"inconclusive: 3.55 µM [inhibitor, partial curve, poor fit]",–
Nc1[nH][nH]c(=O)c1N=Nc1ccc2c(c1)OCO2,"inconclusive: 50.1 µM [inhibitor, partial curve]",–
O=c1[nH]c2ccccc2c2nc(-c3cccc(S(=O)(=O)N4CCCC4)c3)nn12,–,inactive: 11.8% [at 12.7 µM]
N/C(=N\OC(=O)COc1cc(Cl)c(Cl)cc1Cl)c1ccccn1,"inconclusive: 89.1 µM [inhibitor, partial curve, poor fit]",–
CC(C)=CC(=O)Nc1ccc(S(=O)(=O)Nc2onc(C)c2C)cc1,"inconclusive: 89.1 µM [inhibitor, single point]",–
COc1cccc(C(=O)Nc2nc3nc(C)c(Cc4ccccc4)c(=O)n3[nH]2)c1,"inconclusive: 7.08 µM [inhibitor, partial curve, poor fit]",–
COc1cccc(C2/C(=C(\O)c3ccc4c(c3)OCO4)C(=O)C(=O)N2CCN(C)C)c1OC (centres undefined),–,inconclusive: -72.9% [inhibitor]
CCCN=Cc1sc2ccc(OCC)cc2c1O,"inconclusive: 25.1 µM [inhibitor, single point]",–
Cc1cccc(N2C(=O)C(CC(=O)Nc3ccccc3)N(C3CCCCC3)C2=O)c1 (centres undefined),inactive,–
Cc1cc(C)n2c(SCC(=O)N(CC(C)C)c3c(N)n(CC(C)C)c(=O)[nH]c3=O)nnc2n1,active: 17.8 µM,–

Structure (SMILES),Potency,"activity, negative = inhibition"
NC(=O)[C@@H]1CCCN1C(=O)[C@H](Cc1cnc[nH]1)NC(=O)[C@@H]1CCC(=O)N1,inactive,–
CCCOc1ccc(-c2nc(SCc3ccccc3)[nH]c(=O)c2C#N)cc1OC,"inconclusive: 89.1 µM [inhibitor, single point]",–
O=C(c1ccccc1)N1CCCOC1c1ccccc1 (centres undefined),active: 25.1 µM,–
O=c1oc2ccccc2cc1-c1csc(Nc2nc3ccc(F)cc3s2)n1,inactive,–
N#CC1=C(N)n2c(s/c(=C\c3ccco3)c2=O)=C(C#N)C1c1ccco1 (centres undefined),"inconclusive: 3.16 µM [inhibitor, single point]",–
CCOc1ccc(S(=O)(=O)N/N=C(\C)c2ccc(Cl)c(Cl)c2Cl)cc1,"inconclusive: 89.1 µM [inhibitor, single point]",–
CCOC(=O)C1(CCc2ccccc2)CCN(C(=O)C2CCCO2)CC1 (centres undefined),inactive,–
CCC(C)(C(=O)NC1CCCC1)N(C)C(=O)c1ccccn1 (centres undefined),inactive,–
CCN(CC)S(=O)(=O)c1ccc(C(=O)NCC2CCCCC2)cc1,inactive,–
Cc1cc(C(=O)Nc2ccc3c(c2)OCO3)no1,inactive,–
CCCCOc1ccc(NC(=O)c2cc3c(n(-c4ccc(Cl)cc4)c2=O)CCCC3=O)cc1,inactive,–
COc1ccc(-c2csc(NC(=O)CN3C(=O)CCC3=O)n2)c(OC)c1,"inconclusive: 89.1 µM [inhibitor, partial curve, poor fit]",–
Cn1c(=O)[nH]c(=O)c2c1nc(Br)n2C/C=N/Nc1ccccc1,"inconclusive: 8.91 µM [inhibitor, partial curve, poor fit]",–
CSc1nc(O)c(C(c2ccccc2)c2c(O)nc(SC)[nH]c2=O)c(=O)[nH]1,"inconclusive: 89.1 µM [inhibitor, single point]",–
CCN(c1ccccc1)S(=O)(=O)c1ccc(C(=O)Nc2nnc(CSC)o2)cc1,"inconclusive: 44.7 µM [inhibitor, full curve]",–
O=C(Nc1nnc(CCN2CCCCC2)s1)c1cccc(Cl)c1,"inconclusive: 50.1 µM [inhibitor, partial curve]",–
Cc1cccc(NC(=O)CSc2ccc(-c3ccccn3)nn2)c1C,inactive,–
COc1ccc(C(=O)N2CCC(c3ccccc3)CC2)c(OC)c1OC,inactive,–
CCOc1ccc(CNCCN2CCCC2)cc1,active: 2.82 µM,–
Fc1ccc2[nH]c3c(N4CCN(C5CCCCC5)CC4)ncnc3c2c1,"inconclusive: 89.1 µM [inhibitor, single point]",–
CC(C)CNS(=O)(=O)c1ccc(CCC(=O)N2CCN(c3ccc(F)cc3)CC2)cc1,inactive,–
Cc1ccc(CNC(=O)CS(=O)(=O)CC(=O)O)cc1,"inconclusive: 89.1 µM [inhibitor, single point]",–
Cc1ccc(OCC(=O)N(Cc2ccc(N(C)C)cc2)CC2CCCO2)cc1C (centres undefined),active: 14.1 µM,–
O=C(NCc1ccccc1)C1=C[C@@H](c2ccc(Br)cc2)C[C@@H](OCCCCO)O1,–,inconclusive: -94.2% [inhibitor]
